Assay results as given in patent US11000038B2, “Pyridone compounds and agricultural and horticultural fungicides containing the same as active ingredients” (priority 2017, dated 2021).

Tests used:
[1] = system: cucumber anthracnose fungi (Colletotrichum orbiculare); experiment: Test Example H: cucumber anthracnose, spray treatment of cucumber plants; settings: 250 ppm spray, 2.5 ml/pot, cucumber Sagami Hanjiro; 6 to 10 days from inoculation
[2] = system: tomato late blight fungi (Phytophthora infestans); format: in vivo; settings: spray treatment of tomato plants; control value=100{1-(n/3)}
[3] = system: rice blast fungi (Magnaporthe grisea); format: in vivo; settings: spray treatment of rice plants; control value=100{1-(n/3)}

Row | SMILES | Test H control value class (cucumber anthracnose) [1] | Test F control value class (tomato late blight) [2] | Test A control value class (rice blast) [3]
1 | CC(C)Cn1cc(Cl)c(=O)c(Cl)c1-c1c(F)cc(F)cc1F [Compound 107] | H (H shows the control value of more than 50%) | L (L shows the control value of 50% or less) | H (H shows the control value of more than 50%)
2 | CC(C)Cn1cc(Cl)c(=O)c(Br)c1-c1c(F)cc(F)cc1F [Compound 108] | H (H shows the control value of more than 50%) | L (L shows the control value of 50% or less) | H (H shows the control value of more than 50%)
3 | O=c1c(Cl)cn(-c2cc(F)ccc2Cl)c(-c2c(F)cccc2F)c1Br [Compound 109] | H (H shows the control value of more than 50%) | L (L shows the control value of 50% or less) | H (H shows the control value of more than 50%)
4 | O=c1c(Cl)cn(-c2cc(F)ccc2Cl)c(-c2c(F)cccc2F)c1Cl [Compound 110] | H (H shows the control value of more than 50%) | L (L shows the control value of 50% or less) | H (H shows the control value of more than 50%)
5 | Cc1ccccc1-n1cc(Br)c(=O)c(Cl)c1-c1c(F)cccc1F [Compound 111] | H (H shows the control value of more than 50%) | L (L shows the control value of 50% or less) | L (L shows the control value of 50% or less)
6 | Cc1ccccc1-n1cc(Br)c(=O)c(Br)c1-c1c(F)cccc1F [Compound 112] | H (H shows the control value of more than 50%) | L (L shows the control value of 50% or less) | L (L shows the control value of 50% or less)
7 | Cc1ccccc1-n1cc(Cl)c(=O)c(Br)c1-c1c(F)cccc1F [Compound 113] | H (H shows the control value of more than 50%) | L (L shows the control value of 50% or less) | H (H shows the control value of more than 50%)
8 | Cc1ccccc1-n1cc(Cl)c(=O)c(Cl)c1-c1c(F)cccc1F [Compound 114] | H (H shows the control value of more than 50%) | L (L shows the control value of 50% or less) | H (H shows the control value of more than 50%)
9 | CC(C)Cn1cc(Br)c(=O)c(Cl)c1-c1c(F)cc(F)cc1F [Compound 115] | H (H shows the control value of more than 50%) | L (L shows the control value of 50% or less) | H (H shows the control value of more than 50%)
10 | CC(C)Cn1cc(Br)c(=O)c(Br)c1-c1c(F)cc(F)cc1F [Compound 116] | H (H shows the control value of more than 50%) | L (L shows the control value of 50% or less) | H (H shows the control value of more than 50%)
11 | O=c1c(Br)cn(-c2cccc(Br)c2)c(-c2c(F)cc(F)cc2F)c1Br [Compound 118] | L (L shows the control value of 50% or less) | L (L shows the control value of 50% or less) | L (L shows the control value of 50% or less)
12 | O=c1c(Cl)cn(-c2cccc(Br)c2)c(-c2c(F)cc(F)cc2F)c1Br [Compound 119] | L (L shows the control value of 50% or less) | L (L shows the control value of 50% or less) | H (H shows the control value of more than 50%)
13 | O=c1c(Cl)cn(-c2cccc(Br)c2)c(-c2c(F)cc(F)cc2F)c1Cl [Compound 120] | H (H shows the control value of more than 50%) | L (L shows the control value of 50% or less) | H (H shows the control value of more than 50%)
14 | O=c1c(Cl)cn(CC2CCCCC2)c(-c2c(F)cc(F)cc2F)c1F [Compound 121] | L (L shows the control value of 50% or less) | L (L shows the control value of 50% or less) | L (L shows the control value of 50% or less)
15 | O=c1c(Cl)cn(CC2CCCCC2)c(-c2c(F)cc(F)cc2F)c1Br [Compound 123] | L (L shows the control value of 50% or less) | L (L shows the control value of 50% or less) | H (H shows the control value of more than 50%)
16 | O=c1c(Br)cn(CC2CCCCC2)c(-c2c(F)cc(F)cc2F)c1Cl [Compound 124] | L (L shows the control value of 50% or less) | L (L shows the control value of 50% or less) | H (H shows the control value of more than 50%)
17 | O=c1c(Br)cn(CC2CCCCC2)c(-c2c(F)cc(F)cc2F)c1Br [Compound 125] | L (L shows the control value of 50% or less) | L (L shows the control value of 50% or less) | H (H shows the control value of more than 50%)
18 | O=c1c(Br)cn(-c2ccon2)c(-c2c(F)cc(F)cc2F)c1Cl [Compound 126] | H (H shows the control value of more than 50%) | L (L shows the control value of 50% or less) | H (H shows the control value of more than 50%)
19 | O=c1c(Br)cn(-c2ccon2)c(-c2c(F)cc(F)cc2F)c1Br [Compound 127] | H (H shows the control value of more than 50%) | L (L shows the control value of 50% or less) | H (H shows the control value of more than 50%)
20 | O=c1c(Cl)cn(-c2ccon2)c(-c2c(F)cc(F)cc2F)c1Cl [Compound 128] | H (H shows the control value of more than 50%) | L (L shows the control value of 50% or less) | H (H shows the control value of more than 50%)
21 | O=c1c(Cl)cn(-c2ccon2)c(-c2c(F)cc(F)cc2F)c1Br [Compound 129] | H (H shows the control value of more than 50%) | L (L shows the control value of 50% or less) | H (H shows the control value of more than 50%)
22 | COc1cc(F)c(-c2c(Br)c(=O)c(Br)cn2-c2ccon2)c(F)c1 [Compound 130] | H (H shows the control value of more than 50%) | H (H shows the control value of more than 50%) | H (H shows the control value of more than 50%)
23 | COc1cc(F)c(-c2c(Cl)c(=O)c(Br)cn2-c2ccon2)c(F)c1 [Compound 131] | H (H shows the control value of more than 50%) | L (L shows the control value of 50% or less) | H (H shows the control value of more than 50%)
24 | COc1cc(F)c(-c2c(Br)c(=O)c(Cl)cn2CC(C)C)c(F)c1 [Compound 132] | H (H shows the control value of more than 50%) | H (H shows the control value of more than 50%) | H (H shows the control value of more than 50%)
25 | COc1cc(F)c(-c2c(Br)c(=O)c(Br)cn2CC(C)C)c(F)c1 [Compound 133] | H (H shows the control value of more than 50%) | L (L shows the control value of 50% or less) | H (H shows the control value of more than 50%)
26 | CC(C)C(C)n1cc(Br)c(=O)c(F)c1-c1c(F)cc(F)cc1F (stereo not drawn) [Compound 134] | H (H shows the control value of more than 50%) | L (L shows the control value of 50% or less) | H (H shows the control value of more than 50%)
27 | Cc1cn(C(C)C(C)C)c(-c2c(F)cc(F)cc2F)c(Cl)c1=O (stereo not drawn) [Compound 135] | H (H shows the control value of more than 50%) | L (L shows the control value of 50% or less) | H (H shows the control value of more than 50%)
